These results are taken from paper PMC12136788.

Sequences and labels used below:
T1: UNK ZnF1-3 (human, UniProt Q9C0B0 31-174)
T1 sequence: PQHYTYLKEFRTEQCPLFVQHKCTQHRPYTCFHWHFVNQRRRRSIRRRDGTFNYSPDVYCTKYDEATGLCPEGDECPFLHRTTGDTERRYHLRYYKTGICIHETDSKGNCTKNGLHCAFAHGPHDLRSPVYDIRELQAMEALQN

B1: chr8:28827827:28827828:+_ENSG00000147421_ENST00000397358|hu_hu|motif|central (ssRNA)
RNA: GGGAGUUCUACAGUCCGACGAUCAUUCUCCCUCCCAUUUUGAUUGGUAGUGCAAGGCUGUGGGGAAGUAUCAUAACUGUUGCGGGGUGACGGGGACAUUCCCGAAUGCUGCGUCUGUGUGGAAGCUGUAGCUGUAGAGGAAGACAACAGAGGAUUGAGCAUCA
B2: chr1:17152557:17152558:+_ENSMUSG00000025777_ENSMUST00000026879|mus_mus|FALSE|FALSE (ssRNA)
RNA: GGGAGUUCUACAGUCCGACGAUCUUCUCAUCAAAUUAUCCACUACCAUCCAUAAGCCAUAUUUACUUGAGACAUUCAUCUAUAUAUUACUUGUAUGCAUAAAUAGGGCUGUCGAGGCCAAGGUUCCCAGGACUGAAGACAAUCCAACAGAGGAUUGAGCAUCA
B3: chr14:103803487:103803488:+_ENSG00000100664_ENST00000558506|hu_mus|motif|central (ssRNA)
RNA: GGGAGUUCUACAGUCCGACGAUCGAGUUUAUGAUGUGUGUCAAGCAUGCCUCGGUACCCACAGGCUUUACAAGAAUUACCGGUUGUUUGCUUCUUUGGAUUGACAUGCAGAUCUGUUUCAGGAUUCUCACACUCAGGACAGAGCAACAGAGGAUUGAGCAUCA
B4: chr5:145543945:145543946:-_ENSG00000133706_ENST00000545646|hu_hu|hu_hu_hu_mus_True|68_108 (ssRNA)
RNA: GGGAGUUCUACAGUCCGACGAUCCUGAAUAGCCAGUGGUGGGAAAUAAUCAAGCCAGUGCUCUGCUUCAGAAAAUUUCACUAUGUCGUCAUCAGAGAGCCCAAGGGAUUUCAUAAUGUCCCACUGGUACUUAGAAGAUCCUGCCAACAGAGGAUUGAGCAUCA
B5: 5291987_5292107_498_CDS_ENSG00000198081_ENST00000357006|human|control|control (ssRNA)
RNA: GGGAGUUCUACAGUCCGACGAUCAGAACUAUCAACCUCAAGCUUCUUGAAAAGCUUUUUAAAGUAAGUGCUGCAGGCAGCAAGAACACAUCUGUGUGCUCUGAAUUUCACAUCCUCAACCACAAUAGCAAUAUCACAAAAUUCCAACAGAGGAUUGAGCAUCA
B6: 78790393_78791387_1050_CDS_ENSMUSG00000033088_ENSMUST00000109689|mouse|control|control (ssRNA)
RNA: GGGAGUUCUACAGUCCGACGAUCGUCCCAAUCCACAGAAGAGGAAUUGCUGGUAUCAUGAGGGGUAUUGCUGUCUUGGCUGGAGCUGGUGUUGGAGUUAGGGUCCUCGUCUUCGUCCUUGUUGUCGUUGUCGUCAGUGCAGCUCAACAGAGGAUUGAGCAUCA
B7: chr14:103803487:103803488:+_ENSG00000100664_ENST00000558506|hu_mus|FALSE|FALSE (ssRNA)
RNA: B3 RNA with G81U, G82A
B8: chr14:89307221:89307222:+_ENSG00000165533_ENST00000346301|hu_mus|hu_hu_hu_mus_False|68_88 (ssRNA)
RNA: GGGAGUUCUACAGUCCGACGAUCUCCUGUUUGGUUAGUGCCAGGGAGUUUCAAAGAUGUGCCAGGGCGUGGAACUUGAGCAAUAGCAUUUUCAUCCAGGAUCAUUUCAGCAAUUCCUUCCUGGUCCACAUCAAUUUCAUCUAUCAACAGAGGAUUGAGCAUCA
B9: chr11:87793471:87793472:-_ENSMUSG00000020483_ENSMUST00000020775|mus_mus|mus_mus_mus_hu_False|8_28 (ssRNA)
RNA: GGGAGUUCUACAGUCCGACGAUCUGGACUUGAAAAUAAAAGAAUAAGCUGGAUCCCCCACCCCCCCACAUUGUCAACCCUACACGAGAGUUUUGAAGGCGACUCAUGAAUCAGCAGAGCUCAAACGAAUGACAACCCCCCACCCAACAGAGGAUUGAGCAUCA
B10: chr14:76907486:76907487:+_ENSMUSG00000022010_ENSMUST00000022587|mus_mus|motif|central (ssRNA)
RNA: GGGAGUUCUACAGUCCGACGAUCACAAGUAGAACAGGUAAAUACAGUGGGGACUGUGUGGGGGACAUGCGCAGAACGACGGUACAGGUGAGGUGCAGAAACCCCUACUGGGAAAUCCACUUCCUUAGCAACUGACCACUUCUCCAACAGAGGAUUGAGCAUCA
B11: chr1:110565788:110565789:+_ENSG00000168710_ENST00000369799|hu_mus|FALSE|FALSE (ssRNA)
RNA: GGGAGUUCUACAGUCCGACGAUCAUUCUGUCUUUAAUGCCUGUUUCUCUGAUCAGUGGAAAGAGAGAAGUAAACAUUUCUAGUACCUAUCAUUAACACAUAACCCAUCUUUGAAGGAUCACAAGCUAGAACACGUUGAGGACUCAACAGAGGAUUGAGCAUCA
B12: chr11:77336104:77336105:-_ENSG00000074201_ENST00000525064|hu_mus|hu_hu_hu_mus_False|48_48 (ssRNA)
RNA: GGGAGUUCUACAGUCCGACGAUCCUCACACAUUGCUGUGAACAUCGCCUCCAAUGCUGACUUAUCACUGGGCACAAAUCGAAAUUCAGUAAUAGGUUCAACAUCAUCAUUGUCUUCCUCAUCUUCAUCAGAGAGAGGUUCUUUCAACAGAGGAUUGAGCAUCA
B13: chr11:77336104:77336105:-_ENSG00000074201_ENST00000525064|hu_mus|hu_hu_hu_mus_False|28_88 (ssRNA)
RNA: B12 RNA with U54C, U89A, A93G, U110C, G111A, U112C, C113U, U114G
B14: chr2:29001751:29001752:+_ENSG00000213639_ENST00000296122|perfect_dup|motif|central (ssRNA)
RNA: GGGAGUUCUACAGUCCGACGAUCAGCCAAUAGCAAACAGAUGGUUUCCAAAGACUGCUUUCCUCUGUCCACAUAAUCUCCGGAGAAAAGAUAGUUGGCUUCUGGUGGAAAACCUCCAUAUUCAAAUAAUCUUAGUAAGUCUGUCAACAGAGGAUUGAGCAUCA
B15: chr3:39104626:39104627:+_ENSG00000114742_ENST00000302313|hu_hu|FALSE|FALSE (ssRNA)
RNA: GGGAGUUCUACAGUCCGACGAUCGUGCUGAUUGACACUCCAUAUUCUUAUGAUAGAGUCUCGACCGGCUGUGAAAAGUCUAUUUAGUGCUGGAUCCAGCUGCAGAGCAUUGACUCCAUUUCGGUUGUACUUCUCCACUUCAUCCAACAGAGGAUUGAGCAUCA
B16: chrX:148277548:148277549:+_ENSMUSG00000025261_ENSMUST00000112622|mus_hu|FALSE|FALSE (ssRNA)
RNA: GGGAGUUCUACAGUCCGACGAUCGAGGACUGCCAGCACCACUUGCAUAUCAGAGGAAGCCAAUAAAGUUGUCAAAUGCUCUAUGGAACUGUACAGAUGCCGGGAAAAGCUGUACUCAAUGAGCAAGGCUGUGAAGUUCAACACCAACAGAGGAUUGAGCAUCA
B17: chr16:23113652:23113653:+_ENSMUSG00000022884_ENSMUST00000115341|mus_hu|FALSE|FALSE (ssRNA)
RNA: GGGAGUUCUACAGUCCGACGAUCCCACAAGUAUAUUAUUAAAUGAUAGAGAACAUCUAAUACAACCAUUUCUACAGAACUAGGAAAUAAAUUUCUAAGAAAGAAAGAUUUUACAGACCCCAUCUUUUAUACCCACCCCAACAGCAACAGAGGAUUGAGCAUCA
B18: chr3:196555327:196555328:+_ENSG00000180370_ENST00000327134|hu_hu|FALSE|FALSE (ssRNA)
RNA: GGGAGUUCUACAGUCCGACGAUCUUCAGGUUAUGCAGACCAUUUCUUUAAACCCCAAAAAGAGUAAUAAUUUUCAUAUACUAAAAGGCUUCUUGUAGAAAAUGGAAAAAAGAGUAUGAGGCCACAGCAGUGAUGUUAACGGUUCAACAGAGGAUUGAGCAUCA
B19: chrX:71549400:71549401:+_ENSMUSG00000019087_ENSMUST00000019231|mus_hu|mus_mus_mus_hu_False|68_68 (ssRNA)
RNA: GGGAGUUCUACAGUCCGACGAUCGCAGUAGGAAGAGGGAAGCUCUUCAGUCCAGUGCGCUGCAGGGAGAAACAUGAACAACACGGACACCGUCCCACCCUCAACCCCCCCACUGGCACAGGGUCACACAAUCUGGGUCAAAGACAACAGAGGAUUGAGCAUCA
B20: chr19:8913615:8913616:-_ENSMUSG00000071658_ENSMUST00000096259|mus_hu|mus_mus_mus_hu_False|1_48 (ssRNA)
RNA: GGGAGUUCUACAGUCCGACGAUCAGGGUACCAAAACCUUCUGCCUGAAAUGGGUGCCCCACCCAGUAGGGAGUUGCAGCUGAAAGUAUCCGUAGCAGAAGCAGUGACUAUACGAAAGGAGGCCCCUGGGGAGGGCCCGAGAUCCAACAGAGGAUUGAGCAUCA
B21: 100204454_100204574_1612_CDS_ENSG00000125304_ENST00000376387|human|control|control (ssRNA)
RNA: GGGAGUUCUACAGUCCGACGAUCCUUAAAACCAAAGUAUGCACCAAUAAACGUCAGAGGCACAGAUAUGCAGAACCAAAGGGCCAAUAUGGCAACCAGUGUCCCAAAAGGAAUAGCUGCUGAAGAUCCUUCUCCCCAGAGGAUCAACAGAGGAUUGAGCAUCA
B22: chr4:95585729:95585730:+_ENSG00000163110_ENST00000317968|hu_mus|motif|central (ssRNA)
RNA: GGGAGUUCUACAGUCCGACGAUCAAAGGUAAGACCAAUGAUAAGAGCAAAGCAAGUACACUCACUAAACAGAAAAGUUACUGCCGGCUCAUAAAAUUUAUUUAGAUUUCUACUUACUAUUUUAAAGAUAAAAUGGUUUUAUUACAACAGAGGAUUGAGCAUCA

Changes are numbered by the printed parent chain. The list shows a part of the results.

This assay deals with T1, UNK ZnF1-3. The experiment in a line: nsRBNS (natural sequence RNA bind-n-seq); RBNS binding buffer (assumed for nsRBNS): 25 mM Tris pH 7.5, 150 mM KCl, 3 mM MgCl2, 0.01% Triton X-100, 500 ug/ml BSA, 20 U/ml SUPERase-In, 4 C; UNK is unkempt and MSI1 is Musashi-1; names of the RNAs are library labels; protein concentration not given here; high values mean tight binding.
In the case of B1, the binding signal stood at 1.58 enrichment R. Molecule B2 returned a binding signal of 1.69 enrichment R. B3 returned a binding signal of 1.18 enrichment R.

As for B4, the binding signal came to 1.3 enrichment R. B5 yielded a binding signal of 1.05 enrichment R. Molecule B6 had a binding signal of 0.864 enrichment R. In turn, B7 gave a binding signal of 1.29 enrichment R. B8: the binding signal is 0.873 enrichment R. In turn, B9 registered a binding signal of 1.58 enrichment R. The result for B10 reads 1.08 enrichment R; that for B11, 1 enrichment R; that for B12, 0.789 enrichment R. B13 returned a binding signal of 1.25 enrichment R. In turn, B14 had a binding signal of 1.36 enrichment R.

In the case of B15, the binding signal came out at 0.659 enrichment R.

Take B16: the binding signal is 2.05 enrichment R. Molecule B17 gave a binding signal of 1.82 enrichment R. B18: the binding signal stood at 1.38 enrichment R. With B19, the binding signal came to 1.92 enrichment R. With B20, the binding signal was 1.41 enrichment R. Molecule B21 came in with a binding signal of 1.55 enrichment R. Molecule B22 gave a binding signal of 1.88 enrichment R.
